The supplement of paper PMC4604168 (melanoma cell lines)
Some of the results follow. Single values are uncertain, as repeats are few or missing.

Legend:
Test in all cases: cell count relative to DMSO control; melanoma cells; higher = more viable cells
Settings in all cases: library dose: low library concentration; 72 h
[1] = tested on: COLO792
[2] = tested on: COLO800
[3] = tested on: COLO829
[4] = tested on: G361
[5] = tested on: IPC-298
[6] = tested on: IST-MEL1
[7] = tested on: LB2518-MEL
[8] = tested on: LOXIMVI
[9] = tested on: MEL-HO
[10] = tested on: MZ2-MEL
[11] = tested on: MeWo
[12] = tested on: RPMI7951
[13] = tested on: RVH-421
[14] = tested on: SkMel28
[15] = tested on: SkMel2
[16] = tested on: SkMel30
[17] = tested on: SkMel5
[18] = tested on: UACC257
[19] = tested on: UACC62
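Further: cell number obtained by counting DAPI-stained nuclei in high-throughput microscope images with image analysis software, screen run in 1,536-well plates.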

Row | SMILES | cell count [1] [%] | cell count [2] [%] | cell count [3] [%] | cell count [4] [%] | cell count [5] [%] | cell count [6] [%] | cell count [7] [%] | cell count [8] [%] | cell count [9] [%] | cell count [10] [%] | cell count [11] [%] | cell count [12] [%] | cell count [13] [%] | cell count [14] [%] | cell count [15] [%] | cell count [16] [%] | cell count [17] [%] | cell count [18] [%] | cell count [19] [%]
1 | NC1(c2ccc(-c3nc4ccn5c(=O)[nH]nc5c4cc3-c3ccccc3)cc2)CCC1 + COc1cc(Nc2ncc(F)c(Nc3ccc4c(n3)NC(=O)C(C)(C)O4)n2)cc(OC)c1OC [Tamatinib] (first compound 0.4 µM, partner dose 0.4 µM) | 22.3 | 109 | 89.2 | 64.6 | 78.4 | 92.5 | 57 | 46.1 | 66.8 | 86.8 | 79.5 | 85.9 | 82.2 | 64.9 | 60.8 | 79 | 84.9 | 91.5 | 59.3
2 | CN(c1ncccc1CNc1nc(Nc2ccc3c(c2)CC(=O)N3)ncc1C(F)(F)F)S(C)(=O)=O + Cc1ccc(NC(=O)c2cccc(N(C)C)c2)cc1NC(=O)c1ccc(O)cc1 [ZM336372] (first compound 0.08 µM, partner dose 2 µM) | 89.9 | 94.3 | 79.7 | 96.8 | 85.2 | 95.1 | 96.4 | 104 | 81.4 | 64.5 | 107 | 77.8 | 77.3 | 71 | 101 | 81.3 | 71 | 38.4 | 75.6
3 | NC1(c2ccc(-c3nc4ccn5c(=O)[nH]nc5c4cc3-c3ccccc3)cc2)CCC1 + Cn1cncc1[C@@](N)(c1ccc(Cl)cc1)c1ccc2c(c1)c(-c1cccc(Cl)c1)cc(=O)n2C [tipifarnib] (first compound 0.4 µM, partner dose 0.01 µM) | 59.2 | 103 | 74.8 | 80.8 | 96.3 | 84.9 | 75.4 | 85.7 | 80.1 | 84.7 | 76.9 | 69.5 | 81.8 | 66.3 | 63.5 | 93.8 | 85.4 | 68 | 58.9
4 | CS(=O)(=O)c1ccc(C(=O)Nc2ccc(Cl)c(-c3ccccn3)c2)c(Cl)c1 [vismodegib] + OCCn1cc(-c2cnc3nnn(Cc4ccc5ncccc5c4)c3n2)cn1 [PF04217903] (first compound 1 µM, partner dose 1 µM) | 114 | 100 | 111 | 109 | 98.2 | 97.5 | 96.2 | 93.3 | 98.5 | 101 | 104 | 118 | 99.3 | 88.7 | 91.9 | 98.6 | 102 | 102 | 109
5 | CN(c1ncccc1CNc1nc(Nc2ccc3c(c2)CC(=O)N3)ncc1C(F)(F)F)S(C)(=O)=O + O=C(O)c1ccc(-c2c[nH]c3ncc(-c4ccccc4)cc23)cc1C1CCCC1 [GSK650394] (first compound 0.08 µM, partner dose 0.16 µM) | 79.1 | 101 | 76.2 | 80.4 | 104 | 89.8 | 92.2 | 94.8 | 90.9 | 84.5 | 94.5 | 88.6 | 102 | 83.6 | 81.8 | 92.2 | 98.3 | 56.7 | 111
6 | C=C(c1ccc(C(=O)O)cc1)c1cc2c(cc1C)C(C)(C)CCC2(C)C [Bexarotene] + CN(NC(=O)CC(=O)NN(C)C(=S)c1ccccc1)C(=S)c1ccccc1 [STA4783] (first compound 2 µM, partner dose 0.006 µM) | 66.6 | 71.8 | 75.4 | 88.1 | 90.9 | 67.4 | 73 | 120 | 88.5 | 104 | 79.3 | 85.2 | 84.5 | 81.7 | 93 | 103 | 105 | 99.5 | 62.1
7 | CCCS(=O)(=O)Nc1ccc(F)c(C(=O)c2c[nH]c3ncc(Cl)cc23)c1F + O=C(Nc1ccccc1)c1cc([N+](=O)[O-])ccc1Cl [GW9662] (first compound 0.08 µM, partner dose 2 µM) | 96.3 | 103 | 127 | 86.1 | 93.8 | 109 | 108 | 119 | 89.3 | 87.8 | 107 | 104 | 101 | 79.8 | 98.3 | 96.9 | 103 | 116 | 55.1
8 | CCCS(=O)(=O)Nc1ccc(F)c(C(=O)c2c[nH]c3ncc(Cl)cc23)c1F + COc1ccc2c(c1)CCC1C2CCC2(C)C(NCCCCCCN3C(=O)C=CC3=O)CCC12 [U73122] (first compound 0.08 µM, partner dose 0.4 µM) | 111 | 77.4 | 123 | 90.2 | 96.7 | 90.6 | 108 | 93.8 | 88.7 | 85.6 | 111 | 98.6 | 90.1 | 80 | 106 | 144 | 108 | 87.7 | 63.6
9 | NC1(c2ccc(-c3nc4ccn5c(=O)[nH]nc5c4cc3-c3ccccc3)cc2)CCC1 + CC1(C)NC(=O)N(c2ccc([N+](=O)[O-])c(C(F)(F)F)c2)C1=O [nilutamide] (first compound 0.4 µM, partner dose 1 µM) | 81.7 | 63.5 | 117 | 95.9 | 105 | 86.7 | 81.1 | 88.3 | 81.7 | 102 | 88.6 | 89.1 | 108 | 71.9 | 89 | 98.1 | 104 | 90.8 | 72
10 | C=C(c1ccc(C(=O)O)cc1)c1cc2c(cc1C)C(C)(C)CCC2(C)C [Bexarotene] + NCC(=O)Nc1ccc(-n2nc(C(F)(F)F)cc2-c2ccc3c(ccc4ccccc43)c2)cc1 [OSU03012] (first compound 2 µM, partner dose 1 µM) | 93.9 | 64.3 | 79.6 | 82.4 | 84.1 | 86.3 | 119 | 79.7 | 93.8 | 87.2 | 55.3 | 83.9 | 94.1 | 58 | 65.8 | 45.4 | 67.5 | 82.7 | 70.7
11 | C=C(c1ccc(C(=O)O)cc1)c1cc2c(cc1C)C(C)(C)CCC2(C)C [Bexarotene] + OCCn1cc(-c2cnc3nnn(Cc4ccc5ncccc5c4)c3n2)cn1 [PF04217903] (first compound 2 µM, partner dose 1 µM) | 104 | 118 | 112 | 90 | 103 | 88.6 | 99.4 | 103 | 107 | 107 | 92.7 | 96.2 | 91.5 | 83.1 | 88.9 | 109 | 77.5 | 121 | 90.5
12 | CN(c1ncccc1CNc1nc(Nc2ccc3c(c2)CC(=O)N3)ncc1C(F)(F)F)S(C)(=O)=O + CC1(C)NC(=O)N(c2ccc([N+](=O)[O-])c(C(F)(F)F)c2)C1=O [nilutamide] (first compound 0.08 µM, partner dose 1 µM) | 91.3 | 127 | 77.5 | 95.7 | 98.7 | 105 | 95 | 83.4 | 110 | 97.3 | 100 | 77.4 | 79.2 | 95.1 | 99.3 | 116 | 68.1 | 68 | 92.2
13 | NC1(c2ccc(-c3nc4ccn5c(=O)[nH]nc5c4cc3-c3ccccc3)cc2)CCC1 + C=CCn1c(=O)c2cnc(Nc3ccc(N4CCN(C)CC4)cc3)nc2n1-c1cccc(C(C)(C)O)n1 [MK1775] (first compound 0.4 µM, partner dose 0.02 µM) | 58.3 | 135 | 99.5 | 84.9 | 94.5 | 95.7 | 82.7 | 92.2 | 82.8 | 93.4 | 91.3 | 111 | 73.8 | 61.6 | 83.8 | 72.2 | 62.1 | 77.7 | 76.7
14 | NC1(c2ccc(-c3nc4ccn5c(=O)[nH]nc5c4cc3-c3ccccc3)cc2)CCC1 + CN(NC(=O)CC(=O)NN(C)C(=S)c1ccccc1)C(=S)c1ccccc1 [STA4783] (first compound 0.4 µM, partner dose 0.006 µM) | 52.9 | 20.5 | 62.8 | 82 | 90.3 | 83.6 | 56.3 | 61.9 | 70.8 | 98.8 | 82.6 | 91.5 | 72.5 | 73.1 | 85.6 | 97.8 | 84.5 | 86.6 | 79.6
15 | C=C(c1ccc(C(=O)O)cc1)c1cc2c(cc1C)C(C)(C)CCC2(C)C [Bexarotene] + O=C(O)c1ccc(-c2c[nH]c3ncc(-c4ccccc4)cc23)cc1C1CCCC1 [GSK650394] (first compound 2 µM, partner dose 0.16 µM) | 84.5 | 110 | 76.7 | 85.8 | 108 | 98.7 | 116 | 108 | 79.8 | 102 | 96.7 | 85.5 | 122 | 78.8 | 96.5 | 111 | 90.1 | 123 | 92.5
16 | CS(=O)(=O)c1ccc(C(=O)Nc2ccc(Cl)c(-c3ccccn3)c2)c(Cl)c1 [vismodegib] + CC1(C)NC(=O)N(c2ccc([N+](=O)[O-])c(C(F)(F)F)c2)C1=O [nilutamide] (first compound 1 µM, partner dose 1 µM) | 95 | 140 | 87.1 | 107 | 95.4 | 99.3 | 102 | 97.7 | 98.9 | 98.2 | 97.2 | 126 | 103 | 102 | 88.7 | 98.2 | 107 | 120 | 88.8
17 | CS(=O)(=O)c1ccc(C(=O)Nc2ccc(Cl)c(-c3ccccn3)c2)c(Cl)c1 [vismodegib] + CO[C@@H]1[C@H](N(C)C(=O)c2ccccc2)C[C@H]2O[C@]1(C)n1c3ccccc3c3c4c(c5c6ccccc6n2c5c31)C(=O)NC4 [Midostaurin] (first compound 1 µM, partner dose 0.08 µM) | 103 | 65.1 | 97.8 | 97.8 | 105 | 109 | 115 | 95.2 | 96.8 | 114 | 82.9 | 97.2 | 99 | 107 | 88.7 | 103 | 92.4 | 89 | 92
18 | C=C(c1ccc(C(=O)O)cc1)c1cc2c(cc1C)C(C)(C)CCC2(C)C [Bexarotene] + c1cc(-c2cnn3cc(-c4ccc(OCCN5CCCCC5)cc4)cnc23)ccn1 [Dorsomorphin] (first compound 2 µM, partner dose 0.4 µM) | 95.4 | 99 | 98.4 | 78.2 | 95.4 | 98.5 | 114 | 87.8 | 98.3 | 99.1 | 95.7 | 88.2 | 120 | 84.4 | 101 | 93.6 | 81.7 | 86.1 | 86.7
